Laboratory results: US11542275B2, “Substituted imidazolidin-2-one derivatives as PRMT5 inhibitors” (Aurigene Discovery Technologies Limited, priority 2018, dated 2023)

Target: PRMT5/MEP50 Complex (Homo sapiens (Human), UniProt O14744)
Assay: PRMT5 inhibition based on TR-FRET assay
Assay type: biochemical
Conditions: 32 nM PRMT5:MEP50 complex, 50 nM Histone-H4 peptide, 1 μM SAM, 90 minutes at room temperature
Description: Protein arginine methyltransferase 5 (PRMT5) is a type II arginine methyltransferase that catalyze mono- and symmetric demethylation on arginine residues of histone or non-histone proteins in presence of S-adenosylmethionine (AdoMet or SAM) a cofactor responsible for donating the methyl group. PRMT5 is reported to be overexpressed in several human cancers. To identify compounds that inhibit the PRMT5 and decrease its activity, a TR-FRET based assay has been established. Time-resolved fluorescence resonance energy transfer (TR-FRET) HTS assays are homogeneous proximity assays where the interaction of two dye-labeled binding partners is detected by the energy transfer between a donor and an acceptor dye, and the subsequent light emission by the acceptor dye. PRMT5 catalyzes Histone H4 peptide which is biotin tagged to the Lysine amino acid at carboxyl end, in presence of S-adenosyl-1-methionine (SAM) to methylate the peptide. The antibody specific to mono methylated H4 peptide (H4R3) with Ig conjugate binds to the methylated peptide, indirectly binding to the Europium lanthanide. […]
The compound dilutions were prepared as 7.5% DMSO stock solutions in assay buffer. […] The plates were then read on Victor-3 with Excitation at 340 nm and Emissions collected at 615 and 665 nm in TR-FRET protocol. […]

| SMILES | IC50 [nM] |
| --- | --- |
| CC(C)(C(=O)O)C1CCN(c2ccc(CN3CCN(C[C@H](O)CN4CCc5ccccc5C4)C3=O)nc2)CC1 [Compound 14, (R)-2-(1-(6-((3-(3-(3,4-dihydroisoquinolin-2(1H)-yl)-2-hydroxypropyl)-2-oxoimidazolidin-1-yl)methyl)pyridin-3-yl)piperidin-4-yl)-2-methylpropanoic acid] | 116 |
| CN(C)S(=O)(=O)C1CCN(c2ccc(CN3CCN(C[C@H](O)CN4CCc5ccccc5C4)C3=O)nc2)CC1 [Compound 15, (R)-1-(6-((3-(3-(3,4-dihydroisoquinolin-2(1H)-yl)-2-hydroxypropyl)-2-oxoimidazolidin-1-yl)methyl)pyridin-3-yl)-N,N-dimethylpiperidine-4-sulfonamide] | 12 |
